This passage reports survival results from PubChem BioAssay AID463173 (ICCB-Longwood Screening Facility, Harvard Medical School, 2010).

The structures appear in SMILES notation. Hit rate of the full screen: of about 52,000 compounds, about 4,300 (8.3%) were called active. No stated cut-off is given here; in the data, active means survival mostly below about 52% (no sharp cut-off); inactive means mostly above about 56%. Some of the results follow.

This assay concerns DeltatarO mutant. Put plainly: growth inhibition of S. aureus wild type versus tarO mutant, primary screen, teichoic acid synthesis inhibitors, RN4220, OD600 (AID 463173). The settings on record: OD600, 18 h, hits give low values, screened at 18.75 µg/mL (by protocol).
For the compound `CCOC(=O)c1ccc(NC(=O)C2=C(C)Nc3nc(SCc4ccc(Cl)cc4)nn3C2c2ccc(OC)cc2)cc1` (stereo unspecified), the survival is inactive: 90%. As to `CC1=C(C#N)C(c2cccc(Oc3ccccc3)c2)C2=C(CCCC2=O)N1` (stereo unspecified), the survival was inactive: 54%. In the case of `COc1ccc(-c2nnc(SCC(=O)Nc3ccc(Cl)cc3)s2)cc1` it was inactive: 84%.

For `COc1cccc(-c2cc(C(=O)Nc3cc(OC)c(OC)c(OC)c3)on2)c1`, the survival is inactive: 56%. `CCCCNC(=O)C1CCCN(S(=O)(=O)c2ccc(-n3cnnn3)cc2)C1` (stereo unspecified): the survival was inactive: 98%. Turning to `COc1cccc2c1cc1c(=O)n(CC(=O)N3CCN(c4cc(Cl)ccc4C)CC3)nc(C)n12`, the survival is inactive: 74%.

For the compound `O=C(CCCn1c(=O)c2cccn2c2cccnc21)NCc1ccc(F)cc1`, the survival is inactive: 101%. With `CCC1CCCCN1CC(=O)N1CCCc2c1c(=O)oc1ccc(OCc3ccccc3)cc21` (stereo unspecified) the figure was active: 18%; with `CCCCSc1ncnc2c1c(-c1ccccc1)cn2-c1cccc(F)c1`, inactive: 78%. With `CCN(CC)CCNC(=O)c1ccc2c(c1)sc1nc(-c3ccc(F)cc3)cn12` the figure was active: 29%; with `CCOC(=O)Cn1cnc2onc(-c3ccc(F)cc3)c2c1=O`, inactive: 141%. With `COc1ccc(C(CNC(=O)COc2ccc(Cl)c(C)c2)N2CCOCC2)cc1` (stereo unspecified), the survival was inactive: 63%. With `CC(=O)Nc1cc(NC(C)=O)cc(-c2nc3ccccc3[nH]2)c1` the figure was inactive: 83%; with `O=C1c2ccccc2CN1c1ccccc1`, inactive: 76%. Regarding `COc1ccc(CNC(=O)CN(c2ccccc2)S(=O)(=O)N(C)C)cc1`, the survival is inactive: 145%. Take `CCOC(=O)c1cc2c(=O)n3ccccc3nc2n(CCCOC)c1=NC(=O)C(C)Oc1ccccc1` (stereo unspecified): the survival was active: 48%. As to `CCOc1cc(CNc2ccc(O)cc2)ccc1OCc1ccc(Cl)cc1`, the survival is inactive: 53%. On to `CN(C)S(=O)(=O)c1ccc(C(=O)N2CC(=O)Nc3ccc(Br)cc3C2c2ccc(F)cc2)cc1` (stereo unspecified), for which the survival was inactive: 59%. Consider `Cc1ccc(CNC(=O)c2ccc(Cn3c(SCc4ccccc4F)nc4cccnc43)cc2)cc1`, for which the survival was inactive: 80%. As to `CCOc1ccc(CC(=O)NCCc2sc3nc(-c4ccc(OC)cc4)nn3c2C)cc1`, the survival is inactive: 86%. `Cc1cc(=O)n(Cc2cccc(Cl)c2)c2c1c(C)nn2-c1ccccc1`: the survival is inactive: 81%. For the compound `Cc1cc(C)cc(NC2=CC(c3cccc(F)c3)N(c3cc(C)cc(C)c3)C2=O)c1` (stereo unspecified), the survival was inactive: 87%.

Regarding `CCN(CC)C(=O)c1sc2c(c1C)c(=O)n(-c1ccccc1)c(=O)n2CC(=O)Nc1ccc(C)cc1C`, the survival was inactive: 93%. For the compound `Cc1cccc(-n2c(=O)c3c4c(sc3n3cnnc23)CCCC4)c1`, the survival is inactive: 72%.

For `CCN1CCN(c2c(S(=O)(=O)c3ccc(C)c(C)c3)cnc3cc(OC)c(OC)cc23)CC1`, the survival is inactive: 75%.

Turning to `CCc1ccc(S(=O)(=O)c2nnn3c2nc(NC2CCCCCC2)c2sccc23)cc1`, the survival was inactive: 72%. Regarding `Cc1c(C(=O)NCc2ccccc2Br)oc2c1-c1[nH]ncc1CC2`, the survival is inactive: 64%. In the case of `CCN1CCN(c2c(S(=O)(=O)c3ccc(OC)cc3)cnc3cc(OC)c(OC)cc23)CC1` it was inactive: 79%. Turning to `CCOC(=O)C(CC)Sc1ccc2nnc(CCNS(=O)(=O)c3ccc(C)cc3)n2n1` (stereo unspecified), the survival was inactive: 60%.

As to `COc1cccc2c1Oc1ncccc1N(C(=O)Nc1ccc(F)c(Cl)c1)C2`, the survival was inactive: 135%. For `Cc1ccc(C)c(CN2C(=O)c3ccccc3S(=O)c3ccc(C(=O)NCc4ccccc4)cc32)c1` (stereo unspecified), the survival is inactive: 83%. As for `COc1ccccc1Cc1nc2ccccc2[nH]c1=O`, the survival was inactive: 54%.

For the compound `COc1ccc(NC(=O)c2ccc(-c3nc(CSc4ccccc4)c(C)o3)cc2)cc1OC`, the survival is inactive: 84%. Consider `Cc1cc(C)cc(NS(=O)(=O)c2ccc3c(c2)NC(=O)C(C)S3)c1` (stereo unspecified), for which the survival was active: 11%. In the case of `CCOC(=O)c1c(C)oc2nc(C)nc(Nc3ccc(CC)cc3)c12` it was inactive: 115%; in that of `CCn1c(C(=O)N2CCC(C(=O)NCCc3ccc(OC)cc3OC)CC2)cc2sccc21`, inactive: 108%. For `Cc1ccc(NCc2cc(=O)[nH]c3ccccc23)cc1`, the survival was inactive: 71%. In the case of `COc1ccc(Cl)cc1NC(=O)CN(C(=O)c1ccco1)C1CCCCC1` it was inactive: 113%. With `COc1ccc(C(=O)C[N+]2=C(C)c3ccc(C)n3CC2)cc1` the figure was inactive: 99%; with `CC(C)Cn1c(=O)c2ccccc2n2c(CCC(=O)N3CCN(c4ccccc4F)CC3)nnc12`, inactive: 92%.

For `CCCn1c(-c2ccc(S(=O)(=O)N3CCOCC3)cc2)csc1=Nc1ccc(OCC)cc1`, the survival is inactive: 70%. In the case of `Cc1ccc2nc(-c3ccc(O)cc3)c(Nc3ccc4c(c3)OCCO4)n2c1`, the survival was inactive: 70%. For `O=C(NCc1ccccc1Cl)C(=O)NCC(c1cccs1)S(=O)(=O)c1cccs1` (stereo unspecified), the survival is inactive: 88%. `CCCSCCCNC(=O)C1CCN(c2nn3cc(-c4ccc(F)cc4)nc3s2)CC1`: the survival was inactive: 73%. For `CCn1cc(C(=O)N2CCN(c3cccc(Cl)c3)CC2)c(=O)c2cc(S(=O)(=O)N3CCCCC3)ccc21`, the survival is inactive: 78%.

Regarding `O=C(CN1CCCC1)N1c2ccccc2Sc2ccccc21`, the survival is inactive: 88%. In the case of `COc1ccc(OC)c(NC(=O)Cn2c(=O)n(Cc3ccccc3)c(=O)c3ccccc32)c1` it was inactive: 77%; in that of `COc1ccc(C(CNC(=O)c2oc3ccc(C)cc3c2C)N2CCOCC2)cc1` (stereo unspecified), inactive: 61%; in that of `COc1ccc(OC)c(NC(=O)N2CCN(S(=O)(=O)c3ccc4c(ccn4C)c3)CC2)c1`, inactive: 55%. Take `COc1cc(OC)cc(C(=O)Nc2ccc3nc(N4CCCCC4)cc(C)c3c2)c1`: the survival was active: 31%.

On to `O=C(CN1C(=O)CCc2cc(S(=O)(=O)N3CCOCC3)ccc21)NCc1ccc(F)cc1`, for which the survival was inactive: 93%. With `CCc1cccc(NC(=O)Nc2csc3c2CCCC3)c1`, the survival was inactive: 114%. In the case of `Cc1ccc(CNC(=O)c2ccc3c(c2)nc(C)n3-c2cc(C)cc(C)c2)cc1` it was inactive: 71%; in that of `O=C(COc1ccccc1F)Nc1ccc(-c2nc3ccccc3s2)cc1`, inactive: 67%; in that of `Cc1ccc(N(CC(=O)NCCc2ccccc2)S(=O)(=O)N(C)C)cc1`, inactive: 88%.

As to `COc1cccc(NC(=O)CNC(=O)Cn2c(C)cc3ccccc3c2=O)c1`, the survival was inactive: 76%.
